# In all, about 310,000 compounds went through this assay and about 2,200 (0.71%) showed an effect of 50% or more. Effects have a minus sign here. Some of the results follow.
# Target: human ether-à-go-go-related gene (hERG) potassium channel (human, UniProt Q12809)
# Experiment: primary screen, population patch clamp on CHO cells stably expressing hERG
# human ether-à-go-go-related gene (hERG) potassium channel, sequence (Q12809 whole entry, looked up): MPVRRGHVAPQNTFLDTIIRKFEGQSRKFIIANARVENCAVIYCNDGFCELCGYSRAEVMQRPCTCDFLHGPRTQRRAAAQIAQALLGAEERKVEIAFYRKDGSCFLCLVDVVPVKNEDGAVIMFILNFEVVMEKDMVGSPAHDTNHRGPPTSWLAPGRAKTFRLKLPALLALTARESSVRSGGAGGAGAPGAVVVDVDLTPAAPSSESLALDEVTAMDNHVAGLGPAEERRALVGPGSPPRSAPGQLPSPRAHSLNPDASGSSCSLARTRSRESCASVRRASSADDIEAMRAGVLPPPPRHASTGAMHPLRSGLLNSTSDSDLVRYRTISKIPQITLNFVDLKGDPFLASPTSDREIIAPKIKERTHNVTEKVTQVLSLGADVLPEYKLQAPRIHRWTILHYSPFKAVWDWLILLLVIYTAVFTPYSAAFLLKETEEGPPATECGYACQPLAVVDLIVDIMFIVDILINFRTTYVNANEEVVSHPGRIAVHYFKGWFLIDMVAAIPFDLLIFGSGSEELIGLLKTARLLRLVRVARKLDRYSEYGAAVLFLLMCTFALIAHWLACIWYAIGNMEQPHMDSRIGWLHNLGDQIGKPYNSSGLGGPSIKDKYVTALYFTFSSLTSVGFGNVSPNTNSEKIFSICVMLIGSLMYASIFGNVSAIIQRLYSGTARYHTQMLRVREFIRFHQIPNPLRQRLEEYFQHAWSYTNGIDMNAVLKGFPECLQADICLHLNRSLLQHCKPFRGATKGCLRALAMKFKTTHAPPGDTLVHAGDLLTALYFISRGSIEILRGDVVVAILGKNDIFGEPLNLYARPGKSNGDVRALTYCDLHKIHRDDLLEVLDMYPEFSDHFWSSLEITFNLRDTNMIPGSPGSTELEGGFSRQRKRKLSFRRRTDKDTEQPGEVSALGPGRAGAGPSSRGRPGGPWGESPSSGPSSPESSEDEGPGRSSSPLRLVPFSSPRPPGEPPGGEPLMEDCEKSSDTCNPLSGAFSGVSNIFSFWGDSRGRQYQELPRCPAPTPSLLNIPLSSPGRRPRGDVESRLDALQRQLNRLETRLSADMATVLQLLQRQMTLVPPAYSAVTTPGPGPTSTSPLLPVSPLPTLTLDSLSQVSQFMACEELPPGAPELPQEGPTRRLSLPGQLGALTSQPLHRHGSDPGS
row,Compound,"hERG current change (%, negative = inhibition) at 1uM [%]"
1,CCCCc1ccc(NC(=S)NCCc2ccc(S(N)(=O)=O)cc2)cc1,12.2
2,Cc1cc2c(s1)NC(=O)CN=C2c1cccs1,22
3,CC1Sc2ccc(S(=O)(=O)NCCc3ccccc3)cc2NC1=O (centres unmarked),8.96
4,Cc1ccc(OCCOCCOc2cccc3cccnc23)c(Br)c1,5.75
5,COC(=O)c1cccc(Cn2cc([N+](=O)[O-])cn2)c1,4.93
6,COc1cc2cc(CN(CCN3CCOCC3)C(=O)Nc3ccc(F)cc3)c(=O)[nH]c2cc1OC,13.4
7,O=C1NC(c2ccc(Br)cc2)Nc2sc3c(c21)CCC3 (centres unmarked),-7.92
8,O=C(O)c1ccc(NS(=O)(=O)c2cccc(S(=O)(=O)c3ccc(Cl)c(Cl)c3)c2)cc1,5.71
9,NC(=O)C1CCN(S(=O)(=O)c2cccc(C(=O)O)c2)CC1,10.4
10,O=[N+]([O-])c1ccc(Sc2ccc(Cl)c(Cl)c2)nc1,-11.9
11,CCOC(=O)C(=CNc1cccc(C)c1C)C(=O)OCC,18.8
12,Cc1cccn2c(=O)c3cc(C(=O)NC4CCCC4)n(C)c3nc12,9.12
13,Cc1onc(-c2ccccc2)c1C(=O)N1CCN(C(=O)c2ccco2)CC1,7.56
14,COc1ccc(C2CC(c3ccccc3)=NN2C(=O)COC(=O)/C=C/c2ccc(O)c(OC)c2)cc1 (centres unmarked),6.56
15,O=C(NNC(=O)c1ccc(Cl)c([N+](=O)[O-])c1)c1ccncc1,15.6
16,Cc1cc(C)cc(C(=O)NCC(=O)OCc2c(C)noc2C)c1,-3.93
17,COc1ccc(CNC(=O)c2cccc3c2C(=O)N(CC2CCCO2)C3)cc1 (centres unmarked),6.13
18,Cc1cc(C(=O)NCCCN2CC(C)CC(C)C2)n(-c2ccccc2)n1 (centres unmarked),-7.31
19,Cc1ccc(C)c(Cn2nnc3c(=O)[nH]c(C4CCN(S(=O)(=O)c5ccc(S(=O)(=O)N(C)C)cc5)CC4)nc32)c1,22.8
20,CCCCSc1nnc(CCNC(=O)OC(C)(C)C)o1,9.25
21,CCCCNC(=O)CCC(=O)Nc1ccc2nc(N3CCCCC3)cc(C)c2c1,4.27
22,O=C(NCc1ccccc1)C1CCCN1S(=O)(=O)c1ccc(Cl)cc1 (centres unmarked),12.3

row,Compound,"hERG current change (%, negative = inhibition) at 1uM [%]"
1,C(=N\Nc1nc2ccccc2[nH]1)/c1ccccc1,5.68
2,CCn1c(=O)c2c(nc(SCC(=O)NCC3CCCO3)n2C)n(C)c1=O (centres unmarked),7.1
3,COC(=O)c1ccc(N/C=C/C(=O)c2ccc(OC)c(OC)c2)cc1,-1.27
4,Cc1nonc1CC(=O)NC1CCCc2c1cnn2-c1ccc(F)cc1F (centres unmarked),13.9
5,Cc1nn(CC(=O)NC2CCC(C)CC2)c(=O)c(C#N)c1C (centres unmarked),-2.51
6,Cc1ccccc1OCc1nnc(SCC(=O)N2c3ccccc3Sc3ccc(Cl)cc32)o1,10.3
7,CN(CCC1CCCCO1)C(=O)CCc1nnc(CCc2ccccc2)o1 (centres unmarked),12
8,CC#CC(=O)NC1CCCN(C2Cc3ccccc3C2)C1 (centres unmarked),0.543
9,CC(C)Cn1c(O)c(/C=C2\C=NN=C2c2ccccc2)sc1=S,17.3
10,CCOc1ccc(N(C(=O)CNC(=O)c2ccco2)C(C(=O)NC2CCCC2)c2ccncc2)cc1 (centres unmarked),6.96
11,CC(C)[C@]12CC(=O)[C@H](C)[C@H]1C2,15.8
12,O=C(NCc1ccc2c(c1)OCO2)Nc1ccc(Cl)cc1,9.07
13,O=C(Nc1cccc(Br)c1)c1cc2ccccc2o1,1.46
14,COc1ccccc1NC(=O)c1c(N=Cc2ccccc2O)cnn1C,11.9
15,Cn1ccc(NC(=O)c2ccc(Cl)cc2)n1,11
16,NC(=O)C(c1ccc(F)cc1)c1ccc(C(=O)c2ccccc2)cc1 (centres unmarked),6.27
17,OC(CN1CCN(Cc2ccccc2)CC1)c1ccc(Br)cc1 (centres unmarked),-46.1
18,CCCC(C(=O)NCc1ccco1)N(Cc1ccco1)C(=O)CNS(=O)(=O)c1ccccc1 (centres unmarked),14.4
19,O=C(O)c1ccc2c(c1)C(=O)N(CCc1c[nH]c3ccccc13)C2=O,11.8
20,Nc1c(C(=O)N2CCCCCC2)oc2ccccc12,6.62
21,N#Cc1cnn(-c2cccc(Cl)c2)c1N,8.85
22,Cn1c(N)c(C(=O)COC(=O)COc2ccc(C#N)cc2)c(=O)n(C)c1=O,-7.25
